Measurements reported in the supplement of paper PMC3334620.
Over roughly 33,000 sequences, “E-score (-0.5 to 0.5)” has its median near -0.01; the highest 2% begin near 0.26. This is one part of the list.

target: Ste12 (UniProt P13574); assay: PBM E-score (8-mer binding enrichment) (E-score (-0.5 to 0.5)); higher = stronger / more preferred TF binding; most listed sequences are background and not binding sites; conditions: protein concentration: 200 nM; construct: GST-DNA-binding domain
Method: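 Universal 'all 10-mer' protein binding microarrays (Agilent AMADID 015681) probed with GST-tagged S. cerevisiae TFs (full-length or DBD) made by in vitro transcription/translation (PURExpress), about 100-200 nM. Bound TF was detected with fluorescent anti-GST. Each ungapped 8-mer (which stands for itself and its reverse complement) is scored by the PBM enrichment score (E-score), a modified Wilcoxon-Mann-Whitney statistic from -0.5 to +0.5, computed with the Universal PBM Analysis Suite. Scale: above 0.35 generally sequence-specific binding.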

Sequence	PBM E-score
CCGAATTA	0.104
GATCGTCC	-0.0224
ACTACGTC	-0.295
CTTGCCCC	-0.124
GAATGGGA	-0.0412
ATATCTTC	0.205
CATAATCC	0.162
AGAACAGG	-0.221
TTGTTAAA	0.221
GCGCAGTA	0.147
GGTGTCGA	0.0194
CTGAGGAC	-0.173
ACATCTGC	-0.131
ATCGAACG	0.0505
AAATATGA	0.308
ATGACGCC	-0.11
ACCTACCT	0.0101
AACGCCGG	0.0581
AAGTGTGT	0.0841
GGAAAGGA	0.0506
GACCTAAC	-0.078
CTTCTCGA	-0.193
CTAAACGA	0.00236
CATATAGA	-0.0222
ATCTGGTG	0.0672

Sequence	PBM E-score
AGTCTGAT	-0.0115
CGAGGACA	-0.0668
GAGACACC	-0.0695
GCCGATGA	-0.153
GGCTTCAC	-0.244
ATGCCCAA	-0.0251
ACGCGATC	-0.0567
CTTTCCCC	0.162
ACTGAAAC	0.477
ACACAAAA	0.26
CCGTCAGA	0.00778
CCGCCGGC	0.167
ATGTTGTA	-0.00602
AGCTGCTG	-0.172
AACCTAGT	0.0524
ATTTTTAC	0.207
ACTGTGTG	0.0733
GCGTAGAA	-0.125
CACGACCC	-0.0704
CGTCTATA	0.00887
ACAGTAGT	0.0635
AATGACCG	-0.0728
GCTGATAC	0.0886
CCCCAGGA	-0.116
CCGTCGAC	0.0574

Sequence	PBM E-score
ATACCCAA	0.132
AATGGCAC	0.0265
GTCCCCAA	-0.132
GCAGGTAA	0.0649
ACGTTGAC	-0.132
CAAGGCGG	-0.0455
AGAAGCTA	-0.0882
AATGCGCG	0.00894
GTGGTAGA	-0.0374
CTCGCGCA	-0.126
ACACGCCT	-0.0826
ATCTGCTA	0.0482
TAATCACA	0.038
ACCTTAAG	0.106
CCCCGAAA	0.0573
AATCGTCG	-0.118
ACGAAAGC	-0.00831
ATGAACCG	-0.0284
CGACCCCC	-0.081
GAGGTCAC	-0.049
CCACAGAC	-0.151
GGACTCAC	-0.292
ACCGGTGG	-0.134
TAGGCAAA	-0.00319
AAAGGCGG	-0.0661

Sequence	PBM E-score
ATTCCCAC	0.0371
AATGAGGC	-0.135
GCAATCAC	-0.0086
GCACTTCC	-0.114
ACTCGCTA	-0.11
AATACCTG	-0.00358
CCTCCGAA	-0.187
GAACAGGC	-0.0496
AATAGCGA	0.121
AAACCACT	0.126
GCCCGGAC	-0.121
CTGATTGA	0.075
ACCGATTA	0.00932
AATAGGTC	0.0223
AACGATGA	0.0695
ACCCATAT	0.0578
GTTTACGA	0.0472
ACTCGGAG	0.0551
CCGCTCCG	-0.0939
CAGGCGCG	-0.101
CGAGAGCG	-0.077
TACTATAA	0.14
CAGCAACC	-0.0222
TGTATAAA	0.018
AAACCCTC	0.164

Sequence	PBM E-score
ACAGAACC	-0.23
TATCAAGA	0.124
AACGCTTG	-0.0486
ACCTGATC	-0.0449
CTCTTAAC	0.112
ACGAGAAC	-0.0536
GCACGGTA	-0.285
CTGACTCC	-0.0506
ATGTACGC	-0.21
GCCCGCAC	-0.0446
ACGATATG	0.0363
ACATTTAA	0.32
ATAATGCG	-0.0284
GGCTCCCC	-0.0423
CGGGATAC	0.193
ATCATGTG	0.00622
AACTTAGT	-0.0656
AAACTACA	0.206
CATCGAAC	0.00393
ACGGCAGA	0.0125
ACTGATCG	-0.165
GCCTGGGA	-0.23
AGCACCCA	-0.025
ATACGAAC	-0.0175
GAGGGGGA	-0.175

Sequence	PBM E-score
CTCCCAGA	-0.165
GCCATGGC	-0.119
ACAGAAGC	-0.0242
AGTTCCTA	0.036
CGTCACAG	0.241
ACGCACAC	0.0111
AGTGTGAT	-0.0705
ATAAGCGA	0.124
GAGAAGTA	0.0345
ATTGCACA	-0.0945
CGCACGAC	-0.18
CGGGGAGC	0.124
TATAACAA	0.215
ATTTCGTC	0.0673
CCCGAGGG	-0.055
GTGAAGTA	0.0422
ACCCACCT	0.0687
AGTCGAAT	-0.11
AGGTGGGC	-0.143
AACCGTTC	0.0503
CCTGTCAC	-0.0246
CCGACAAC	0.0301
AATGAGAA	0.0724
CCTGTACC	-0.139
AGTACCTC	-0.116

Sequence	PBM E-score
GTTTAACA	0.0355
GTGCCTTA	-0.039
CCTCCACA	-0.115
CAAGTTGC	-0.0129
GAACAGGA	-0.14
ATGTCTAA	0.0254
AGTGATAC	0.0953
GTCACGAC	-0.0172
ATAACCAC	0.172
CCCAACAG	-0.151
AAATCAGT	0.139
ATTGGAGC	-0.0227
CGCCGTTA	-0.0556
GGTTCCCA	-0.219
GGAATGAC	-0.0387
AAGTCACA	0.0917
CAAACGCC	0.0326
CAGACGAC	-0.258
ACGTTAGA	0.103
AAGAATCT	-0.0844
GACACCCA	-0.0387
GGGCCAGA	-0.0832
ACGTTCAT	-0.158
ATCCGCCA	-0.12
GATATCGA	0.0654

Sequence	PBM E-score
GAACCAAC	0.0674
ACTCTTAG	-0.0071
GATCTCCA	-0.0207
GATACGAC	-0.0468
GGCTTCCC	-0.197
AGGTCGAT	0.132
GGTTCCAA	0.225
ACAACTAG	-0.118
AACAGCGC	-0.0225
TCTCCTAA	-0.00062
AAGCCTCA	-0.238
TCGAAAAA	0.238
AGGCATGA	-0.0765
ACTCCTCC	-0.0302
AATGCTAT	-0.0169
GGGCTAGA	-0.177
AAACCGTC	0.0495
TACTTCGA	0.21
ACGTAAAC	-0.0335
GGGCCTCA	-0.0796
GGAGCTTA	-0.219
ACTTTATC	0.102
GAACTCCC	0.0278
CGATTTGA	0.129
GACCCCGA	-0.0406

Sequence	PBM E-score
GGGTGGAC	-0.226
AGCTGCAA	-0.0393
ACCGACTA	-0.175
GTCGGCAA	-0.133
CCTGTTGC	0.111
GGGTCTCA	-0.0397
CAGCGCCC	-0.0741
CTAATTGC	0.13
GGGATAAC	-0.0162
AATAGGCT	0.0616
AAGACCCG	-0.0735
CAAATGCC	-0.227
CCGAGCGA	0.0317
GCCCGACA	0.205
CGCGTCCG	0.0389
ACGATGAC	-0.173
AACCGATG	0.113
ATCTTCCC	0.131
CCAAGATC	-0.164
GTCAATCA	0.00113
AAATGTCT	0.0539
AATGAGCC	-0.076
ACCGGGCA	-0.18
ATGCCTCG	0.00724
AAAGCTGC	0.0388

Sequence	PBM E-score
AGAGAGGG	-0.255
CATGCAGC	-0.122
GGAGTGCC	-0.269
CATAAGAG	-0.0402
AGAAGCTC	-0.223
AACGGTGG	-0.128
TCGAGGAA	0.0493
CCCCGAGA	0.066
GCCTACAA	-0.0578
AACACTTG	-0.0983
GTTCTAAA	0.223
CGGAGTTA	-0.0439
CGCTCCAA	-0.189
ACGTTTCC	-0.0394
CGTCCGCA	-0.192
GATGATTA	0.0318
CGCTCGTC	-0.202
ACTGCACG	0.0119
CCTAAGTA	-0.00863
AACGGCCT	-0.0876
AGTTAGAA	0.0897
CCGGTGTA	0.0161
AGTCTATC	-0.15
CCCTTAAG	-0.091
GGTGAACC	-0.00551

Sequence	PBM E-score
CTCGTGGC	-0.0643
CCCCGATA	0.0333
AATAACGC	0.0349
TATATTGA	0.245
ACAACATC	-0.0874
ATCCGATC	0.162
GCTTATCA	0.0662
CTAAAAGA	0.0876
AGCACTAT	-0.29
ATCGAATG	0.0932
CTATGTAA	0.0851
CGATCCAA	-0.0517
AGTGGCTG	0.0252
AGGCCTGA	0.0596
CACACTTA	-0.0107
GAGGAGTA	-0.0707
GCAACGTA	0.0118
CGACCAAA	0.167
CGTATGGA	0.0821
AACTAGTT	0.0497
GTTCTCCA	-0.0071
AAATATAC	0.225
GGATCATA	0.00836
TAGGTGGA	-0.0849
CCATATAG	-0.111

Sequence	PBM E-score
GCTGAGTA	-0.0751
ATATACCA	-0.101
ATTAATGG	0.219
ATACCGAC	-0.0269
CCAACTGG	-0.0346
ATTAACTA	0.157
ACTCGTAC	-0.187
GGCTAACA	-0.129
GGGCACCC	-0.114
ACCAGTAT	0.0354
AAGAAACA	0.285
TACCACTA	-0.0201
CCGATTAC	-0.0622
AATTGAGA	0.164
GAGGCCAA	-0.0479
CAGGACAG	-0.157
ATCAAATC	0.235
AGAATACA	0.0801
GATGGCGA	-0.0467
CGGGAGGA	-0.00159
AGGGCAGG	-0.0843
ACTGGGTA	-0.0106
AAATTTCA	0.0583
ACCTGGCA	-0.17
ATCTTATG	0.161

Sequence	PBM E-score
TGCTAACA	-0.098
CGTTTCAA	0.46
ATTGGATA	0.0168
GTAGACCA	-0.189
AATATCGT	0.134
ACGATGAG	-0.00735
GTGTGCAA	-0.0711
GCTGTTGA	0.0409
CCCTAATA	-0.149
GCATTCAA	0.0885
GAGACATA	0.203
CGATCACA	0.0271
ACTAGTAC	-0.0845
CTCGAAAG	0.0019
ACTCCCAA	0.189
CGTTCTAG	-0.0373
CTAGACAG	0.0353
AATTAAGA	0.208
GATCTTCA	0.0189
ACTAAAAA	0.203
GCCTTTTA	0.0766
CAATGACA	-0.00173
CTACAGCA	0.039
GAGACCAA	0.0695
ACCACGAG	-0.166

Sequence	PBM E-score
AGCTTGTC	0.043
AATGATCG	-0.0109
ATTTATAG	0.0961
CGCCTCGC	0.115
CGCCCGTA	-0.139
ACTATGAT	0.0838
ACATTAGC	0.0463
CATTAGAA	0.13
ACTTACTC	-0.15
ATGGGACA	0.0115
GCACGGCC	0.0348
CGCCTGAG	-0.129
GAAATAAA	0.282
ACACACCT	0.0972
CGACCGCG	-0.115
AATGGTAA	0.128
CAAACTGA	0.114
CATAAGTA	-0.019
CCACCCCA	0.0623
